According to article PMC6919601, “Identification of Plasmodium dipeptidyl aminopeptidase allosteric inhibitors by high throughput screening” (PLoS ONE, 2019):
The campaign covered roughly 110,000 compounds. About 230 (0.21%) showed an effect of 50% or more. The list shows a part of the results.

These molecules were tested against DPAP1 (Plasmodium falciparum, UniProt Q8IIJ9) (assay: primary screen, percent inhibition; read by cleavage of a fluorogenic dipeptide substrate; higher = more effect of the substance).
Sequence of DPAP1 (Q8IIJ9 whole entry, looked up): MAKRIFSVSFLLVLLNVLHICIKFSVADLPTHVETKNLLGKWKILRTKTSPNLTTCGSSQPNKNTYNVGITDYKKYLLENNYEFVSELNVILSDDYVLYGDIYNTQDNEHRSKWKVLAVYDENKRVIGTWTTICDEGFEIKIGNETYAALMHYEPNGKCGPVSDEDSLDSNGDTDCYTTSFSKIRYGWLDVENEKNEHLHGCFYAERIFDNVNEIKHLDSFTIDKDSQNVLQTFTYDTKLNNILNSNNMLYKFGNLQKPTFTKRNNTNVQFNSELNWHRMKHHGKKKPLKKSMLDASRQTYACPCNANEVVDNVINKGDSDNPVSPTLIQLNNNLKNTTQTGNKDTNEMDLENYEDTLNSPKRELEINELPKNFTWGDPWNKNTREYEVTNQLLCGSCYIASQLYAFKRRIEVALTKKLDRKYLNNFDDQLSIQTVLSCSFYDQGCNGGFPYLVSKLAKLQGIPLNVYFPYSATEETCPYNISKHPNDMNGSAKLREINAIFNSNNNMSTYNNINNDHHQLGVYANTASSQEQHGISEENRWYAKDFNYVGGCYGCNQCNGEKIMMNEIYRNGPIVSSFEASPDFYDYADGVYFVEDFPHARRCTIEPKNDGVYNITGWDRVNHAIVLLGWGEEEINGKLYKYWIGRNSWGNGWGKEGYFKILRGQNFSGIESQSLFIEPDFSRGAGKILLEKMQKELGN
Parameters: species or system P. falciparum D10 trophozoite lysates; single well
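Also: 30 min substrate incubation versus DMSO and 10 µM JCP410 controls.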

SMILES	% Inhibition @ 10 uM [%]
CC1(C)CC(=O)C(/C=N/c2ccc(Cl)cc2C(F)(F)F)=C(O)C1	3.92
CSc1ccc(Cl)c(C(=O)Nc2nc3ccccc3n2C)c1	-6.65
CC1CCCCN1Cc1nc2c(c(=O)n(C)c(=O)n2C)n1CC(=O)c1ccccc1 (stereo not drawn)	-4.14
CS(=O)(=O)C1=NN2C(=N)/C(=C\c3ccc(Cl)cc3)C(=O)N=C2S1	-5.27
CC(=O)NCc1ccc(S(=O)(=O)N(C)C)cc1	-6.94
CCOCCCNC(=O)c1ccc(OCC)cc1	2.44
CN(Cc1ccccc1)C(=O)C(CC1CCCCC1)C(=O)NCC#N (stereo not drawn)	-3.49
O=C(CCc1ccccc1)Nc1cc(C(F)(F)F)ccc1Cl	-0.273
CC(C)CC(=O)/N=C1/SC2CS(=O)(=O)CC2N1CCc1ccccc1 (stereo not drawn)	3.81
N#C/C(=C/c1ccc(F)cc1)c1nc2ccccc2[nH]1	-2.41
O=c1c2sccc2nc(SCc2cc(=O)n3cc(Cl)ccc3n2)n1Cc1ccccn1	-4.01
CCCN(CCC)C(=O)CSc1nc2ncccc2o1	-0.441
COc1ccc(OC)c(C2C(C(=O)c3ccccc3)=C(O)C(=O)N2c2cccnc2)c1 (stereo not drawn)	6.22
COc1ccc(C2C(C#N)=C(N)OC3=C2C(=O)CC(C)(C)C3)cc1O (stereo not drawn)	1.66
Cc1cc(O)n2nc(-c3ccc(Cl)cc3)cc2n1	-1.92
N#Cc1c(NC(=O)c2cccnc2Cl)sc2c1CCC2	0.777
Cc1sc(NC(=O)C2CCCC2)c(C#N)c1C	-4.41
COc1ccc(C2C3=C(O)CC(C)(C)CC3=NC3=C2C(=O)CC(C)(C)C3)cc1O (stereo not drawn)	4.45
Clc1ccc(-n2ncc3c(N4CCC5(CC4)OCCO5)ncnc32)cc1	1.26
CC(C)Oc1ccc(C2CC(=O)NC3=C2C(=O)CCC3)cc1 (stereo not drawn)	-1
CCN(CC)c1ccc(NC(=O)Cc2ccc(F)cc2)cc1	4.44
COc1ccc(-c2c3c(nc4sc5c(O)nc(C)nc5c24)CCC3)cc1	3.5
Cc1ccccc1NC(=O)c1cccc(N2C(=O)C3C4C=CC(C4)C3C2=O)c1 (stereo not drawn)	-5.23
O=C(Cn1nc(-c2ccc(Cl)cc2)c2ccccc2c1=O)NCCN1CCOCC1	-8.79
CC(=O)c1ccccc1-c1ccccc1C(=O)O	2.4

SMILES	% Inhibition @ 10 uM [%]
CCN(CC)C(=O)Nc1cc(NC(=O)N(CC)CC)c(C)nc1C	1.84
Cc1ccc2cc(C#N)c(O)nc2c1	5.2
O=C(Nc1cccc2ccccc12)NC(c1ccccc1)c1ccccc1	-5.62
CCOc1ccc2nc(NC(=O)C3CCC3)sc2c1	-13.3
N#Cc1nc(/C=C/c2ccc(F)cc2)oc1NCCCn1ccnc1	-0.808
O=C(N/C(C(=O)N1CCOCC1)=C(\SCc1ccccc1)c1ccccc1)c1ccccc1	-3.98
COc1cc(C2CC(=O)Oc3c2c(=O)oc2ccccc32)cc(OC)c1OC (stereo not drawn)	-2.19
CC(=O)Nc1ccc(N2C(=O)C3C4CCC(C4)C3C2=O)cc1 (stereo not drawn)	-0.795
COc1cc2cc(-c3ccccc3)nc(C)c2cc1OC	4.55
CCCS(=O)(=O)N1CCCC(C(=O)NCCCN(CC)CC)C1 (stereo not drawn)	6.32
CC(C)CN1C(=O)c2ccccc2C(C(=O)N2CCN(C3CCCCC3)CC2)C1c1cccs1 (stereo not drawn)	1.97
CCOC(=O)N1CCC2(CC1)OC(=O)C(C)=C2C(=O)NCc1ccc2c(c1)OCO2	-1.58
COc1ccc(NC(=O)C(C)(C)C)cc1	-0.0372
CC1(C)CC(=O)C2=C(C1)OC1=C(C(=O)CC(C)(C)C1)C2c1cccs1	-0.127
Cc1cccc(CCNC(=O)CNS(=O)(=O)c2ccc3nc(C)sc3c2)c1	2.57
CC1=CC2=NC(=O)/C(=C\c3ccc(OCCOc4ccccc4C)c(Cl)c3)C(=N)N2O1	-9.06
COc1cc(OC)c(OC)cc1CN1CCN(Cc2cccc(F)c2)CC1	-1.65
CC(NC(=O)c1sc2nc3c(cc2c1N)N1CCC3CC1)c1ccccc1 (stereo not drawn)	-3.03
Cc1ccc(C2CC(=O)N3CN(C4CCCCC4)CSC3=C2C#N)cc1 (stereo not drawn)	25.9
O=C(Nc1ccccc1Nc1cc(-c2ccccc2)nn1-c1ccccc1)c1ccccc1	-4.35
COc1cc(C2CC(c3c(O)cc(C)oc3=O)=Nc3ccccc3S2)cc(OC)c1O (stereo not drawn)	1.54
CCN(CC)CCNC(=O)Nc1cn(C)c(=O)c2ccccc12	2.99
CC(C)(O)C1Cc2cc3ccc(=O)oc3cc2O1 (stereo not drawn)	0.467
CCn1c(/C=C/c2cccs2)nc2ccccc2c1=O	-0.872
O=C1c2cccnc2C(=O)N1CCc1ccc(S(=O)(=O)N2CCC(Cc3ccccc3)CC2)cc1	-3.01

SMILES	% Inhibition @ 10 uM [%]
COCCCNC(=O)c1nnc(-c2cccnc2)o1	-2.23
O=C(CN1C(=O)c2ccccc2Sc2ncccc21)N1CCCCC1	2.06
COc1ccccc1C(=O)Nc1ccc(C)cc1C	-1.61
Cc1cc(O)n2c(-c3ccccc3C)nnc2n1	-5.92
O=C(CSc1ncccn1)Nc1cc(C(F)(F)F)ccc1Cl	-3.98
COc1ccc(N2CCN(Cc3ccoc3)CC2)cc1	-2.81
COc1ccc2c(=O)c(Oc3ccccc3Br)c(C(F)(F)F)oc2c1	25.4
O=C(NCC1CCCO1)c1cc2c(Cl)nc3ccccc3c2s1 (stereo not drawn)	-3.99
COc1ccc(-c2nc(CSCC(=O)N3CCN(C)CC3)c(C)o2)cc1OC	-1.27
COc1ccc2c(c1)c1c(c(=O)n(Cc3ccccc3)c(=O)n1C)n2C	-5.37
c1coc(CSc2nn3nnnc3c3ccccc23)c1	4.1
CN(CC(=O)N1CCCCCC1)S(=O)(=O)c1ccc2[nH]c3c(c2c1)CCCC3	-2.22
CC1CCN(C(=O)c2ccc(N3C(=O)C4C5C=CC(C5)C4C3=O)cc2)CC1 (stereo not drawn)	-5.58
COc1cc(NC(=O)c2cnn3c2NC(c2cccs2)CC3C(F)(F)F)c(OC)cc1Cl (stereo not drawn)	-0.67
CCCCCCCCc1nnc(NC(=O)c2ccccc2)s1	-4.08
N#Cc1c2n(c3c(O)ncnc13)CCCC2	-2.51
Cc1ccc2c(c1)-c1c(cnn1CC(=O)N1CCC(N3CCCCC3)CC1)CO2	-8.2
COc1ccc(CCNC(=O)[C@H]2O[C@@H]3OC(C)(C)O[C@@H]3[C@H]3OC(C)(C)O[C@H]32)cc1OC	1.64
CCC1CCCCN1C(=O)CSc1nnc(CNC(=O)c2cc(OC)c(OC)c(OC)c2)o1 (stereo not drawn)	3.48
CCC1CCCCN1C(=O)Cn1c(C(=O)OC)cc2sc(Cl)cc21 (stereo not drawn)	-7.13
CCSc1nc(O)c2c(n1)NC(=O)CC2c1cccc(O)c1 (stereo not drawn)	3.84
Cc1ccccc1S(=O)(=O)Cc1ccc(C(=O)NCCCN2CCOCC2)o1	3.77
COc1cc2ncc(S(=O)(=O)c3ccccc3)c(N3CCN(C)CC3)c2cc1OC	-10.2
CC1CCN(S(=O)(=O)c2nnc(NC(=O)c3ccccc3Br)s2)CC1	1.68
CC(=O)C1=C(C)OC(N)=C(C#N)C1c1ccccc1[N+](=O)[O-] (stereo not drawn)	-1.29

SMILES	% Inhibition @ 10 uM [%]
CCc1ccc(C2=NN(CCC(=O)NCc3cccs3)C(=O)CC2)cc1	-0.971
COc1ccc(N2C(=O)C(Cl)=C(Nc3cccc(C(F)(F)F)c3)C2=O)cc1	4
O=C(NCc1ccco1)C1Sc2nnc(-c3ccccc3)n2NC1c1ccc(Cl)cc1 (stereo not drawn)	1.72
CC(C)C12CN3CC(C(C)C)(CN(C1)C3c1ccc(O)cc1O)C2=O (stereo not drawn)	-1.19
O=[N+]([O-])c1c(Nc2ccc(Cl)cc2)nc(Nc2ccccc2)nc1Nc1cccc(Cl)c1	2.6
COc1ccc(Br)cc1CNC(=O)CCC(=O)n1nc(C)c2ccccc21	8.34
COc1ccc(OC)c(NC(=O)c2ccc(C)cc2)c1	10.7
Cc1cccc(C2OC3(C(=O)c4ccccc4C3=O)C3C(=O)N(C4CCCCC4)C(=O)C23)c1 (stereo not drawn)	2.93
COc1ccc(S(=O)(=O)Cc2ccc(C(=O)NCc3ccccn3)o2)cc1	2.14
O=C(CN1C(=O)C2C3c4ccccc4C(c4ccccc43)C2C1=O)Nc1cccc(C(=O)O)c1 (stereo not drawn)	0.727
O=C1C(=O)N(CN2CCOCC2)c2ccc([N+](=O)[O-])cc21	-5.51
CC1CCN(S(=O)(=O)c2ccc(NC(=O)C3CCCO3)cc2)CC1 (stereo not drawn)	-6.43
COCc1cc(C)nc(SCC(=O)c2ccc(Cl)cc2)c1C#N	0.687
COc1ccc(Cc2nnc(NC(=O)Cn3cnc4c3c(=O)n(C)c(=O)n4C)s2)cc1OC	3.12
Cc1cc(NCc2ccc(F)cc2Cl)n2nnnc2n1	3.51
CCC(=O)Nc1sc2c(c1C(=O)Nc1ccccc1)CCC(C)C2 (stereo not drawn)	3
Cc1nc2ccccc2n1Cc1ccc(Cl)c(Cl)c1	-3.14
CCCCn1c(NCc2ccco2)nc2ccccc21	-4.72
CCn1cc(C(=O)Nc2c(C)nn(Cc3ccc(Cl)cc3Cl)c2C)cn1	0.431
CCOC(=O)N1CCN(C(=O)C(C)N(c2ccccc2)S(C)(=O)=O)CC1 (stereo not drawn)	-5.13
Cc1cc(C)cc(OCC(=O)Nc2ccc(S(=O)(=O)N3CCCC3)cc2)c1	1.64
COc1ccc(/C=C2\Sc3ccccc3C2=O)cc1Br	6.98
CC(C)CCCC(C)NS(=O)(=O)c1ccc(N)cc1 (stereo not drawn)	-0.864
CCN(CCN(C)C)Cc1cccc(OCc2ccccc2)c1	-1.64
